From the supplement of paper PMC10369915
This is one part of the list. No stated cut-off is given here; in the data, active = 3.2 or more and inactive = the rest. The signal is at background level for most entries.

B1: REQU_HUMAN_172 (peptide)
chain: DDLDDEDYEEDTPKR
B2: RET_HUMAN_1029 (peptide)
chain: TPSDSLIYDDGLSEE
B3: RET_HUMAN_1062 (peptide)
chain: TWIENKLYGMSDPNW
B4: RET_HUMAN_900_YA (peptide)
chain: FGLSRDVYEEDSAVK
B5: RET_HUMAN_981 (peptide)
chain: DNCSEEMYRLMLQCW
B6: AT1A1_HUMAN_260 (peptide)
chain: TARGIVVYTGDRTVM
B7: RGS17_HUMAN_137_YA (peptide)
chain: EEKARMIYEDAISIL
B8: RHG12_HUMAN_243 (peptide)
chain: GRPDSPVYANLQELK
B9: RHG21_HUMAN_881_YA (peptide)
chain: KTERSKSYDEGLDDA
B10: RHG35_HUMAN_308 (peptide)
chain: ASPEYQDYVYLEGTQ
B11: RHG42_HUMAN_376 (peptide)
chain: MDGKEPIYTLPAIIS
B12: RHG42_HUMAN_870 (peptide)
chain: TGLVPENYVVFLGGG
B13: RHOU_HUMAN_254 (peptide)
chain: SKSWWKKYCCFVGGG
B14: RIPK1_HUMAN_384_YA (peptide)
chain: KLQDEANYHLAGSRM
B15: RIPK2_HUMAN_474 (peptide)
chain: DLIMKEDYELVSTKP
B16: RL10A_HUMAN_11 (peptide)
chain: KVSRDTLYEAVREVL
B17: ROA2_HUMAN_331 (peptide)
chain: SRNMGGPYGGGNYGP
B18: RON_HUMAN_1353 (peptide)
chain: SALLGDHYVQLPATY
B19: ROR2_HUMAN_646_YA (peptide)
chain: EVAAADAYKLLGNSL
B20: ROS1_HUMAN_2115_YA (peptide)
chain: DIAKNDAYRKRGEGL
B21: ROS1_HUMAN_2334 (peptide)
chain: GKPEGLNYACLTHSG
B22: RPS6KA3_HUMAN_488_YA (peptide)
chain: DVADDGKYVAVVTEL
B23: SC6A4_HUMAN_47 (peptide)
chain: SGQISNGYSAVPSPG
B24: ATP4A_HUMAN_7_YA (peptide)
chain: GMGKAENYELASVEL
B25: SCN5A_HUMAN_1494 (peptide)
chain: MTEEQKKYYNAMKKL
B26: SCN5A_HUMAN_1495_YA (peptide)
chain: TEEQKKAYNAMKKLG
B27: SDC4_HUMAN_180 (peptide)
chain: KKKDEGSYDLGKKPI
B28: SDHA_HUMAN_215 (peptide)
chain: SLRYDTSYFVEYFAL
B29: SDPR_HUMAN_395_YA (peptide)
chain: EQAQKVRYEGSAALT
B30: SEPT9_HUMAN_278 (peptide)
chain: KAPVDFGYVGIDSIL
B31: SET_HUMAN_146_YA (peptide)
chain: FAFDENPYFENKVLS
B32: SF3B2_HUMAN_592 (peptide)
chain: TIHGDLYYEGKEFET
B33: SFPQ_HUMAN_691 (peptide)
chain: GPGTPAGYGRGREEY
B34: SH2D3_HUMAN_283_YA (peptide)
chain: ESATHIQYLFEQESF
B35: SHAN1_HUMAN_186 (peptide)
chain: GLKKFLEYVQLGTSD
B36: SHC1_HUMAN_349_YA (peptide)
chain: EEPPDHQYANDFPGK

The binders below were run against SHP2 C-SH2 domain E139D (assay: enrichment score (SH2-bound / input frequency) (ratio); bacterial display of known human phosphotyrosine sites (pTyr-Var adds point mutants) read by sequencing; higher = stronger binding; tyrosines were phosphorylated by kinases first). Details: peptide library: Human pTyr.
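Further: displayed peptides selected on beads carrying the immobilized SH2 domain, with library peptides lacking any tyrosine serving as negative controls.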

Row | Binder | enrichment score
1 | B1 | inactive: 0.798
2 | B2 | inactive: 1.25
3 | B3 | inactive: 0.841
4 | B4 | inactive: 0.792
5 | B5 | inactive: 0.931
6 | B6 | inactive: 0.779
7 | B7 | inactive: 0.71
8 | B8 | inactive: 1.03
9 | B9 | inactive: 1.18
10 | B10 | inactive: 0.703
11 | B11 | inactive: 0.912
12 | B12 | inactive: 0.961
13 | B13 | inactive: 1.56
14 | B14 | inactive: 0.744
15 | B15 | inactive: 0.806
16 | B16 | inactive: 1.29
17 | B17 | inactive: 0.511
18 | B18 | inactive: 0.616

Row | Binder | enrichment score
19 | B19 | inactive: 0.779
20 | B20 | inactive: 0.755
21 | B21 | inactive: 1.72
22 | B22 | inactive: 0.69
23 | B23 | inactive: 0.373
24 | B24 | inactive: 0.676
25 | B25 | inactive: 0.971
26 | B26 | inactive: 1.34
27 | B27 | inactive: 1.6
28 | B28 | inactive: 2.17
29 | B29 | inactive: 0.702
30 | B30 | inactive: 0.831
31 | B31 | inactive: 0.718
32 | B32 | inactive: 0.658
33 | B33 | inactive: 0.682
34 | B34 | inactive: 0.995
35 | B35 | inactive: 0.978
36 | B36 | inactive: 0.597

Each binder was assayed against SHP2 C-SH2 domain wild-type in the same assay as above. Details: peptide library: Human pTyr.

Row | Binder | enrichment score
37 | B1 | inactive: 0.856
38 | B2 | inactive: 1.15
39 | B3 | inactive: 0.737
40 | B4 | inactive: 0.923
41 | B5 | inactive: 0.867
42 | B6 | inactive: 0.774
43 | B7 | inactive: 0.554
44 | B8 | inactive: 1.51
45 | B9 | inactive: 1.02
46 | B10 | inactive: 0.66
47 | B11 | inactive: 0.596
48 | B12 | inactive: 1.29
49 | B13 | inactive: 1.29
50 | B14 | inactive: 0.678
51 | B15 | inactive: 0.623
52 | B16 | inactive: 1.24
53 | B17 | inactive: 0.529
54 | B18 | inactive: 0.587

Row | Binder | enrichment score
55 | B19 | inactive: 0.65
56 | B20 | inactive: 0.709
57 | B21 | inactive: 2.1
58 | B22 | inactive: 0.646
59 | B23 | inactive: 0.442
60 | B24 | inactive: 0.637
61 | B25 | inactive: 1.15
62 | B26 | inactive: 1.03
63 | B27 | inactive: 1.77
64 | B28 | inactive: 2.52
65 | B29 | inactive: 0.811
66 | B30 | inactive: 0.727
67 | B31 | inactive: 0.82
68 | B32 | inactive: 0.675
69 | B33 | inactive: 0.583
70 | B34 | inactive: 1.2
71 | B35 | inactive: 0.869
72 | B36 | inactive: 0.585

What follows are binders tested against SHP2 N-SH2 domain L43F in the same assay as above. Details: peptide library: Human pTyr.

Row | Binder | enrichment score
73 | B1 | inactive: 0.86
74 | B2 | inactive: 1.32
75 | B3 | inactive: 0.774
76 | B4 | inactive: 0.977
77 | B5 | inactive: 0.875
78 | B6 | inactive: 0.64
79 | B7 | inactive: 0.618
80 | B8 | inactive: 1.1
81 | B9 | inactive: 1.02
82 | B10 | inactive: 0.886
83 | B11 | inactive: 0.946
84 | B12 | inactive: 1.37
85 | B13 | inactive: 1.2
86 | B14 | inactive: 0.641
87 | B15 | inactive: 0.662
88 | B16 | inactive: 1.23
89 | B17 | inactive: 0.445
90 | B18 | inactive: 0.5

Row | Binder | enrichment score
91 | B19 | inactive: 0.696
92 | B20 | inactive: 0.68
93 | B21 | active: 9.85
94 | B22 | inactive: 0.896
95 | B23 | inactive: 0.506
96 | B24 | inactive: 0.59
97 | B25 | inactive: 1.18
98 | B26 | inactive: 1.06
99 | B27 | inactive: 1.59
100 | B28 | inactive: 2.2
101 | B29 | inactive: 0.716
102 | B30 | inactive: 0.864
103 | B31 | inactive: 0.648
104 | B32 | inactive: 0.717
105 | B33 | inactive: 0.81
106 | B34 | inactive: 0.878
107 | B35 | inactive: 1.02
108 | B36 | inactive: 0.633

What follows are binders tested against SHP2 N-SH2 domain T42A in the same assay as above. Details: peptide library: Human pTyr.

Row | Binder | enrichment score
109 | B1 | inactive: 0.978
110 | B2 | inactive: 1.2
111 | B3 | inactive: 0.571
112 | B4 | inactive: 0.638
113 | B5 | inactive: 0.958
114 | B6 | inactive: 0.873
115 | B7 | inactive: 0.592
116 | B8 | inactive: 1.12
117 | B9 | inactive: 0.942
118 | B10 | inactive: 0.761
119 | B11 | inactive: 0.946
120 | B12 | inactive: 0.974
121 | B13 | inactive: 1.16
122 | B14 | inactive: 0.654
123 | B15 | inactive: 0.713
124 | B16 | inactive: 1.23
125 | B17 | inactive: 0.437
126 | B18 | inactive: 0.48

Row | Binder | enrichment score
127 | B19 | inactive: 0.793
128 | B20 | inactive: 0.688
129 | B21 | active: 7.18
130 | B22 | inactive: 0.664
131 | B23 | inactive: 0.67
132 | B24 | inactive: 0.707
133 | B25 | inactive: 1.25
134 | B26 | inactive: 1.21
135 | B27 | inactive: 1.37
136 | B28 | inactive: 2.1
137 | B29 | inactive: 0.824
138 | B30 | inactive: 0.838
139 | B31 | inactive: 0.698
140 | B32 | inactive: 0.601
141 | B33 | inactive: 0.647
142 | B34 | inactive: 0.926
143 | B35 | inactive: 0.975
144 | B36 | inactive: 0.728

Each binder was assayed against SHP2 N-SH2 domain T52S in the same assay as above. Details: peptide library: Human pTyr.

Row | Binder | enrichment score
145 | B1 | inactive: 0.854
146 | B2 | inactive: 0.938
147 | B3 | inactive: 0.896
148 | B4 | inactive: 0.871
149 | B5 | inactive: 0.926
150 | B6 | inactive: 0.831
151 | B7 | inactive: 0.682
152 | B8 | inactive: 1.09
153 | B9 | inactive: 1.26
154 | B10 | inactive: 0.717
155 | B11 | inactive: 0.837
156 | B12 | inactive: 0.503
157 | B13 | inactive: 1.15
158 | B14 | inactive: 0.868
159 | B15 | inactive: 0.971
160 | B16 | inactive: 1.42
161 | B17 | inactive: 0.64
162 | B18 | inactive: 0.641

Row | Binder | enrichment score
163 | B19 | inactive: 0.694
164 | B20 | inactive: 0.75
165 | B21 | active: 6.33
166 | B22 | inactive: 0.898
167 | B23 | inactive: 0.596
168 | B24 | inactive: 0.648
169 | B25 | inactive: 1.4
170 | B26 | inactive: 1.23
171 | B27 | inactive: 1.7
172 | B28 | inactive: 2.23
173 | B29 | inactive: 0.721
174 | B30 | inactive: 0.664
175 | B31 | inactive: 0.596
176 | B32 | inactive: 0.661
177 | B33 | inactive: 0.636
178 | B34 | inactive: 1.04
179 | B35 | inactive: 1.5
180 | B36 | inactive: 0.675

These binders were tested against SHP2 N-SH2 domain wild-type in the same assay as above. Details: peptide library: Human pTyr.

Row | Binder | enrichment score
181 | B1 | inactive: 1.23
182 | B2 | inactive: 1
183 | B3 | inactive: 0.762
184 | B4 | inactive: 0.948
185 | B5 | inactive: 0.92
186 | B6 | inactive: 0.839
187 | B7 | inactive: 0.539
188 | B8 | inactive: 1.04
189 | B9 | inactive: 1.25
190 | B10 | inactive: 0.805
191 | B11 | inactive: 0.924
192 | B12 | inactive: 1.08
193 | B13 | inactive: 1.9
194 | B14 | inactive: 0.618
195 | B15 | inactive: 1.01
196 | B16 | inactive: 1.7
197 | B17 | inactive: 0.523
198 | B18 | inactive: 0.566

Row | Binder | enrichment score
199 | B19 | inactive: 0.627
200 | B20 | inactive: 0.709
201 | B21 | inactive: 2.78
202 | B22 | inactive: 0.619
203 | B23 | inactive: 0.528
204 | B24 | inactive: 0.66
205 | B25 | inactive: 1.04
206 | B26 | inactive: 1.17
207 | B27 | inactive: 1.43
208 | B28 | inactive: 2.79
209 | B29 | inactive: 0.815
210 | B30 | inactive: 0.837
211 | B31 | inactive: 0.829
212 | B32 | inactive: 1.02
213 | B33 | inactive: 0.573
214 | B34 | inactive: 0.961
215 | B35 | inactive: 0.921
216 | B36 | inactive: 0.591
